The values below come from PubChem BioAssay AID360 (National Center for Advancing Translational Sciences (NCATS), 2006).

Hit rate of the full screen: of about 48,000 compounds, about 550 (1.1%) were called active. Inconclusive results (about 4%) are left out. No stated cut-off is given here; in the data, active means potency below about 15 µM; inconclusive means mostly about 16 µM to 33 µM; inactive means weaker than that. Some of the results follow.
Potency means the concentration at half of the fitted maximal effect.

In this test the target is Lysosomal acid glucosylceramidase (Homo sapiens) (UniProt P04062). Description: Glucocerebrosidase.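 Further: the screen sought inhibitors.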 The conditions noted are these: purified enzyme, resorufin glucoside fluorescence (screen aimed at inhibitors), 20 min; series mostly up to 77 µM. The method in brief: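 Wild-type enzyme at 0.2 nM final in 50mM citric acid/KH2PO4, 10mM sodium taurocholate, 0.01% tween-20, pH 5.9, with resorufin beta-D-glucopyranoside at 30 uM final. Compounds titrated, 20 min at RT, red fluorescence read; AC50 from titration.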
Sequence of UniProt P04062 (P04062 whole entry, looked up): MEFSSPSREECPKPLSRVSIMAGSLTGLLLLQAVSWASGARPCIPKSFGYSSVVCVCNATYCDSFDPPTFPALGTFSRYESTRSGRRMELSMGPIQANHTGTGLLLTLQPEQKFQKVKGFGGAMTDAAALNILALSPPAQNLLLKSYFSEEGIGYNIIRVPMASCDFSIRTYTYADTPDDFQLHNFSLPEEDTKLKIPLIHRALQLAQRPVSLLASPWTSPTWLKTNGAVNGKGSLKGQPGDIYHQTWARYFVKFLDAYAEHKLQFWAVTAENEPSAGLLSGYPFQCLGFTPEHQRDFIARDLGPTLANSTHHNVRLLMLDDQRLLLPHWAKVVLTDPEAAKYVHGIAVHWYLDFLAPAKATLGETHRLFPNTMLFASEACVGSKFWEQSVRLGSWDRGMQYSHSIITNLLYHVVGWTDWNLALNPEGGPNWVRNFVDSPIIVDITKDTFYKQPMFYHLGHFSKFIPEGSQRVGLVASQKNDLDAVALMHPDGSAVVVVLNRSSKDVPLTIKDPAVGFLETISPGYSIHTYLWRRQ
Turning to `CCOc1ccccc1C(=O)NCc1ccco1`, the Potency is inactive: > 76.9 µM.
For the compound `COc1ccc(CNC(=O)c2noc3c2CCCC3)cc1`, the Potency is inactive: > 76.9 µM.
For `COc1cccc(C2Nc3ccccc3C(=O)N2O)c1O` (configuration not stated), the Potency is inactive: > 76.9 µM.
For `CCNC(=O)COC(=O)c1ccc(S(=O)(=O)N2CCCCCC2)cc1`, the Potency was inactive: > 76.9 µM.
Consider `C=CCn1cc(C(=O)NCCCOC)c(=O)c2cc(S(=O)(=O)N(CC)CC)ccc21`, for which the Potency was inactive: > 76.9 µM.
Then `COC(=O)c1cn(NC(=O)c2ccncc2)c(=O)c2ccccc12`, with inactive: > 76.9 µM.
As to `Nc1cc(Br)c(N)c(Br)c1`, the Potency was inactive: > 76.9 µM.
As for `CC(=O)Nc1nc(C=C(Cl)Cl)cs1`, the Potency was inactive: > 76.9 µM.
Take `COc1ccccc1CC(NC(C)=O)C(=O)NC1CCN(c2nnnn2-c2ccccc2)CC1` (configuration not stated): the Potency was inactive: > 76.9 µM.
Regarding `O=C(O)c1cc(-c2ccncc2)nc2ccc(F)cc12`, the Potency was inactive: > 76.9 µM.
`CCCCn1c(=NC(=O)c2cccnc2)c(C(=O)OCC)cc2c(=O)n3ccccc3nc21`: the Potency was inactive: > 76.9 µM.
On to `Cc1ccc(S(=O)(=O)N2CC(=NO)C2)cc1`, for which the Potency was inactive: > 76.9 µM.
`COc1cccc2cc(-c3nnc(SCC(=O)NCc4ccccc4)n3C)oc12`: the Potency was inactive: > 76.9 µM.
Regarding `CSc1nc(N(CCO)CCO)c2sc3nc(-c4ccco4)c4c(c3c2n1)CCC4`, the Potency is inactive: > 76.9 µM.
On to `CC(=O)c1cc2c(O)c(O)ccc2o1`, for which the Potency is inactive: > 76.9 µM.
In the case of `N/C(=N\O)C1COc2ccccc2O1` (configuration not stated), the Potency was inactive: > 76.9 µM.
Under `COc1ccc(O)c(C(=O)c2cc(C#N)c(=O)n(-c3c(C)n(C)n(-c4ccccc4)c3=O)c2)c1` stands inactive: > 76.9 µM.
As to `CC(C)(C)c1nnc2sc(SCC(=O)N3CCCc4ccccc43)nn2c1=O`, the Potency is inactive: > 76.9 µM.
Then `O=C(CN1C(=O)CCC1=O)Nc1ccc(S(=O)(=O)N2CCOCC2)cc1`, with inactive: > 76.9 µM; and `O=C(NC1CCCCC1)c1ccc(Cn2cc(Br)cn2)o1`, with inactive: > 76.9 µM; and `Cc1nc(SCC(=O)NCc2ccco2)c2oc3ccccc3c2n1`, with inactive: > 76.9 µM.
As to `CCOC(=O)CN(C(=O)Cn1nnc2ccccc21)C(C(=O)NCCOC)c1ccccc1C` (configuration not stated), the Potency is inactive: > 76.9 µM.
Consider `CCOC(=O)C1=C(C)NC(=O)C(C#N)C1c1ccncc1` (configuration not stated), for which the Potency is inactive: > 76.9 µM.
Take `CCC(CC)C(=O)Nc1cccc(C(=O)N2CCCC2)c1`: the Potency was inactive: > 76.9 µM.
With `CN(C)S(=O)(=O)Nc1ccc2c(c1)OCO2`, the Potency is inactive: > 76.9 µM.
Then `COc1ccc(N2CCN(C(=O)CSc3nnc(COc4cccc5cccnc45)o3)CC2)cc1`, with inactive: > 76.9 µM; and `OCC1N=C(c2ccccn2)OC1c1ccccc1` (configuration not stated), with inactive: > 76.9 µM.
With `CCOc1ccc(NC(=O)CCN2CCN(c3ccccc3OC)CC2)cc1`, the Potency was inactive: > 76.9 µM.
As for `CS(=O)(=O)c1sc2nc(-c3cccs3)cc(-c3ccccc3)c2c1N`, the Potency was inactive: > 76.9 µM.
Then `COC(=O)C1=C(N)Oc2cc(C)n(Cc3cccnc3)c(=O)c2C1c1cc(OC)ccc1OC` (configuration not stated), with inactive: > 76.9 µM; and `Cc1noc(C)c1C(=O)Nc1ccc(Cl)cc1C(F)(F)F`, with inactive: > 76.9 µM; and `CC(C)=CC(=O)N1CCCc2ccccc21`, with inactive: > 76.9 µM.
Then `O=C(Nc1ccc2c(c1)OCCO2)c1ccc2nccnc2c1`, with inactive: > 76.9 µM; and `O=c1cc(N2CCN(Cc3ccccc3)CC2)[nH]c(=O)n1Cc1ccc(F)cc1`, with inactive: > 76.9 µM; and `O=C(CSc1ccccn1)N1CCN(C(=O)CSc2ccccn2)CC1`, with inactive: > 76.9 µM.
As to `Cc1csc(CCc2nc(C)cs2)n1`, the Potency was inactive: > 76.9 µM.
Under `CC1CCCCC1NC(=O)c1cn(C)c2ccc(S(=O)(=O)N3CCCC3)cc2c1=O` (configuration not stated) stands inactive: > 76.9 µM; under `Cc1ccc(S(=O)(=O)CC(=O)N2CCCCCC2)cc1`, inactive: > 76.9 µM; under `C=CCNC(=O)c1cc(-c2ccc(Br)cc2)on1`, inactive: > 76.9 µM.
On to `O=C(CCSc1nc2ccccc2o1)N1CCOCC1`, for which the Potency was inactive: > 76.9 µM.
As to `O=C(CCc1nc(-c2ccc(Cl)cc2)no1)OCc1ccc(Br)cc1`, the Potency is inactive: > 76.9 µM.
For `CCC(=O)Nc1cc(C(C)C)c(O)cc1C`, the Potency is inactive: > 76.9 µM.
Consider `CCOC(=O)N1CCN(C(=O)Nc2ccccc2Cl)CC1`, for which the Potency was inactive: > 76.9 µM.
For the compound `NS(=O)(=O)c1ccc(CCNC(=O)CCC2COc3ccccc3O2)cc1` (configuration not stated), the Potency is inactive: > 76.9 µM.
Consider `OCCCN1c2ccccc2Nc2nnc(-c3ccccc3)cc21`, for which the Potency is inactive: > 76.9 µM.
Under `O=C(Cc1c(F)cccc1Cl)Nc1ccon1` stands inactive: > 76.9 µM; under `O=C(c1noc2c1CCc1ccccc1-2)N1CCOCC1`, inactive: > 76.9 µM; under `CC(C)(C)NC(=O)c1ccc(COCC(F)(F)F)o1`, inactive: > 76.9 µM.
Take `COc1ccccc1NC(=O)c1ccccc1NS(=O)(=O)N1CCCC1`: the Potency was inactive: > 76.9 µM.
With `CCOC(=O)Nc1nnc(-c2ccc(OC)c(OC)c2)s1`, the Potency is inactive: > 76.9 µM.
As to `CCc1ccc2[nH]c(=O)c(C(c3nnnn3CCOC)N3CCN(c4ccc(F)cc4)CC3)cc2c1` (configuration not stated), the Potency was inactive: > 76.9 µM.
`COc1cc(-c2nnc(SCC(=O)c3cc(C)n(CC4CCCO4)c3C)o2)cc(OC)c1OC` (configuration not stated): the Potency was active: 13.2 µM.
For the compound `CCOc1cc(C2NC(=O)NC(C)=C2C(=O)OCc2ccccc2)ccc1O` (configuration not stated), the Potency is inactive: > 76.9 µM.
With `CC1CCc2cc(F)ccc2N1C(=O)CN1C(=O)c2ccccc2C1=O` (configuration not stated), the Potency was inactive: > 76.9 µM.
Under `CC(C(=O)Nc1cc(C(F)(F)F)ccc1N1CCOCC1)N1C(=O)C2CC=CCC2C1=O` (configuration not stated) stands inactive: > 76.9 µM; under `O=C(Cn1c(-c2ccccc2)noc1=O)NCc1ccccc1`, inactive: > 76.9 µM; under `O=C(c1cc(S(=O)(=O)N2CCOCC2)c(Cl)cc1Cl)N1CCCCC1`, inactive: > 76.9 µM.
On to `Cn1nnnc1CCOCCc1nnnn1C`, for which the Potency is inactive: > 76.9 µM.
Under `CC(=O)NC(Cc1ccccc1)C(=O)NC1CCN(C(=O)c2cnccn2)CC1` (configuration not stated) stands inactive: > 76.9 µM.
Take `COc1ccc2[nH]c3c(NCCN(C(C)C)C(C)C)ncnc3c2c1`: the Potency was inactive: > 76.9 µM.
Turning to `COc1ccc(S(=O)(=O)Nc2cc(C)cc(C)n2)c2ccccc12`, the Potency is inactive: > 76.9 µM.
With `COc1ccc(-c2cc(C(N)=O)nc(N3CCCCCC3)n2)cc1`, the Potency is inactive: > 76.9 µM.
Under `COC(=O)CSc1nnc(-c2cccc(NC(=O)c3ccc(C)cc3)c2)n1C` stands inactive: > 76.9 µM; under `Cc1sc2ncnc(SCC#N)c2c1C`, inactive: > 76.9 µM.
Under `CCCC(=O)N1c2ccccc2[C@@H](N(C(C)=O)c2ccccc2)C[C@H]1C` stands inactive: > 76.9 µM; under `CCOC(=O)N1CCN(c2c(-c3ccc(C)c(C)c3)c(=O)c2=O)CC1`, inactive: > 76.9 µM.
As to `Cc1csc(NC(=O)CCN2C(=O)c3ccccc3S2(=O)=O)n1`, the Potency was inactive: > 76.9 µM.
Consider `O=c1c(=O)n(O)c2ccccc2n1O`, for which the Potency is inactive: > 76.9 µM.
As to `COc1ccc(NC(=O)CSc2nnc(-c3ccccc3)n2Cc2ccco2)c(OC)c1`, the Potency is inactive: > 76.9 µM.
Then `O=C(c1cccn2c(=O)c3ccccc3nc12)N1CCN(c2ccccn2)CC1`, with inactive: > 76.9 µM; and `COC(=O)CN(c1ccc(C)cc1)S(=O)(=O)c1ccc2c(c1)n(C)c(=O)c(=O)n2C`, with inactive: > 76.9 µM; and `CCCC(=O)NC1C2CC3CC(C2)CC1C3` (configuration not stated), with inactive: > 76.9 µM.
For `COc1ccccc1CN1C(=O)C2CC=CCC2C1=O` (configuration not stated), the Potency is inactive: > 76.9 µM.
With `CCc1nnc(NC(=O)CSc2nnc(-c3ccoc3C)n2CC(C)C)s1`, the Potency is inactive: > 76.9 µM.
`CN(C(=O)c1ccncc1)C1CC(C)(C)N(O)C(C)(C)C1`: the Potency is inactive: > 76.9 µM.
Regarding `O=C(Nc1ccccc1F)c1cc(S(=O)(=O)N2CCCCC2)cs1`, the Potency is inactive: > 76.9 µM.
Then `Cc1cccc(C)c1N(CC(=O)N1CCN(C)CC1)S(C)(=O)=O`, with inactive: > 76.9 µM.
Take `O=C(Cn1c(CO)nc2ccccc21)Nc1cc(C(F)(F)F)ccc1N1CCOCC1`: the Potency is inactive: > 76.9 µM.
Take `Cc1ccc(-n2ncc3c(=O)n(Cc4ccccn4)cnc32)cc1C`: the Potency was inactive: > 76.9 µM.
`Cc1ccc2cccc(OC(=O)c3ccc4c(c3)OCCO4)c2n1`: the Potency is inactive: > 76.9 µM.
For the compound `CN(C)c1ccc(C(c2nnnn2C2CCCCC2)N2CCN(C(=O)c3ccco3)CC2)cc1` (configuration not stated), the Potency is inactive: > 76.9 µM.
For the compound `COc1ccc(CCNC(=O)COC(=O)c2cnccn2)cc1`, the Potency is inactive: > 76.9 µM.
In the case of `CCN(CC)c1cc(Oc2ccccc2)ncn1`, the Potency is inactive: > 76.9 µM.
For the compound `CC(C)CC(NC(=O)C1CCCCC1)C(=O)NCc1ccccn1` (configuration not stated), the Potency is inactive: > 76.9 µM.
Regarding `CC1S/C(=C(\C#N)C(N)=O)N(c2ccc(F)cc2)C1=O` (configuration not stated), the Potency was inactive: > 76.9 µM.
For the compound `c1ccc(C2(c3ccccc3)OCC(Cn3cncn3)O2)cc1` (configuration not stated), the Potency is inactive: > 76.9 µM.
Consider `O=c1[nH]c(CN2CCN(Cc3ccc4c(c3)OCO4)CC2)nc2sc3c(c12)CCC3`, for which the Potency was inactive: > 76.9 µM.
Consider `Cn1c(=O)c2c(-c3ccccc3)n(-n3cnnc3)cc2n(C)c1=O`, for which the Potency is inactive: > 76.9 µM.
Then `CCC(=O)Nc1c(C(=O)N2CCCCCC2)cnn1-c1ccc(C)c(C)c1`, with inactive: > 76.9 µM.
Turning to `O=S(=O)(c1ccc(SCCO)nc1)N1CCCC1`, the Potency is inactive: > 76.9 µM.
For `Cn1c(=O)oc2cc(S(=O)(=O)NCCN3CCCCCC3)ccc21`, the Potency is inactive: > 76.9 µM.
Turning to `O=C(Nc1ccccc1)c1ccc(S(=O)(=O)N2CCCC2)cc1`, the Potency was inactive: > 76.9 µM.
